{"source": "paper PMC5709738", "about": "(The EMBO Journal, 2017)", "binders": {"B1": {"name": "Okp1_229-336 (K. lactis) (domain or fragment, UniProt Q6CJY0 229-336)", "chain": "DNLNMEYIYAKGESIKKRYKSELDRAEAIERQLIREEEHLKSLQEKGETQAKKRKQVLSKELSELSKTMHPSLSVALSNTFGLIKDDKMSNEIYQQDKIDFNLKLKTD"}, "B2": {"name": "Ame1_1-260 (K. lactis) (domain or fragment, UniProt Q6CUE5 1-260)", "chain": "MDALKQRHLKLLYRQRGSASRTIDYDVVIEPELREDGDLVTDSQLTEQDDQSFPDIQVPSPDRVDDFDLNQGDGLMDKATANEDDIDHVIGDEVAAVNAPVETSDLVIDTTQFDSMTLSQLSTPLTSMATIDVLRRLLETVILVTIEERTSQFNRAGSARLRLKLKLEIKILTWFLHQSKEDLITISELNLSNNDLLYRLKQISLLKNSLSRSLLDVRSAISSYEGPNNALSEEQVALQNFKRINELILSQRIDTIINNN"}, "B3": {"name": "Okp1_295-360 (K. lactis) (domain or fragment, UniProt Q6CJY0 295-360)", "chain": "KTMHPSLSVALSNTFGLIKDDKMSNEIYQQDKIDFNLKLKTDFSKPLISEKEENSLNGLTNAMDNN"}, "B4": {"name": "Nkp1-Nkp2 heterodimer (K. lactis) (complex, Kluyveromyces lactis)", "chain 1": "MDLESEIIQLVRQNIRPKFPSLNDEQQARLDNALKYDVNYDILKKELVEYIDDWKRNEYYDVLTNIGDLQRLDLGNMLNGDGVSFPKLHSDLANLPRFRLIDNENEMDQSLLHKYDSLRTRLIEKCRAIELIRSATNTDVNYQDINSMLSVVELRQWRDEIQMEWKELAQNLELILKTWPDLTEEKRSKLLQLIDSSSLKSILHIKDNIE", "chain 2": "MLHEVLYKHLDGILVSRLYTEDQFVDLFSRTIPESNTVIASQLYKSYEENDQRIIEKIDKLIDNKLSLIRVELEREQIEDSISLEEVNKLLHSIDDMLQQHLNQLNIELDNKNTKLLKYAMELSDIEAIDTSMYDNVAKLITDMETNQPSS", "notes": "Nkp1 of Kluyveromyces lactis; Nkp2 of Kluyveromyces lactis; also called NN; source: E. coli BL21 Rosetta 2(DE3)pLysS, purified"}, "B5": {"name": "full-length Ctf19-Mcm21 (K. lactis) (complex, UniProt Q6CRN7 1-270; Q6CVQ9 1-293)", "chain 1": "MDFTSSSGVLDSERNTGSNDSDEPSSHSDVIETEELKLIKLQEHKNNLLRQRSELLDQLSQTRVVEPRSVQLDDKLLLKLLRRNDNAVSDSSQSSNNPLPRVLPSLNIEQRKKYLDITLNDVTVTCEKDMILLRKGSFTASFRIAVENESIRSMAIDLNAFEVELQPIIQYAEDTQNVNVAMMAVVQFLRIKELHEQMISKIVEASKFIRASNNTITLNDLEVSFHCYWNLPSPYPETLILTNKVQKILDFLIYQYGIQLGVIKYGSTII", "chain 2": "MEETEAVQQDIEALEREIQTIKIQIANAHSGASKDEVKIPDAYKQFLSENINFSNLMRKDENTTLSINLSPRKPGTTTGQIQGIDSSIRSNFGVSSGHNEVAGFKSITDFVQWENSVRLIGVSLFPVNYDNIEFMGIRLELFDELSLKYDPPFYVILKPSVKRLGIWELFKHNLPKYINIHQHWQLITKDTDTSDSNIMKFANLCYKDLLKVHSRVQFFRKLEGNYVNDKQYSLLHIDNMGLNVSFRLGADIIKIKVDDGDDEIIDCTFNGEKNISLLGSIYGITNRFQSIIM"}}, "key": {"[1]": {"molecular_target": "T1, Ctf19_D-RWD-Mcm21_D-RWD (K. lactis, purified) (Kluyveromyces lactis) (UniProt Q6CRN7+Q6CVQ9)", "T1 sequence 1": "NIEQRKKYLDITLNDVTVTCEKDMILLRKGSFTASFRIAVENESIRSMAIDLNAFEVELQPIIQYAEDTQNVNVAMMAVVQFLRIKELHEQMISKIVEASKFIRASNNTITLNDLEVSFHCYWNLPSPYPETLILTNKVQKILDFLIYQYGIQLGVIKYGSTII", "T1 sequence 2": "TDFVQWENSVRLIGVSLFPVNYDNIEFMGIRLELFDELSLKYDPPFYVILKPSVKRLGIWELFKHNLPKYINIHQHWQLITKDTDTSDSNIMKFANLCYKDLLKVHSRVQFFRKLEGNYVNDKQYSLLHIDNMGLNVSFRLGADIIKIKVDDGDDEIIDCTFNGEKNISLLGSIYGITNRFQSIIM", "experiment": "HDX-MS; purified assemblies in D2O buffer, quenched at pH ~2.5, pepsin column; exchange patterns compared between assemblies; both purified"}, "[2]": {"molecular_target": "T1, Ctf19_D-RWD-Mcm21_D-RWD (K. lactis, purified) (Kluyveromyces lactis)", "experiment": "SEC; analytical SEC of purified K. lactis samples alone and combined, Superdex 200 10/300, 4°C; fractions on SDS-PAGE; both purified"}, "[3]": {"molecular_target": "T2, Okp1_123-336 (K. lactis) (Kluyveromyces lactis) (UniProt Q6CJY0)", "T2 sequence": "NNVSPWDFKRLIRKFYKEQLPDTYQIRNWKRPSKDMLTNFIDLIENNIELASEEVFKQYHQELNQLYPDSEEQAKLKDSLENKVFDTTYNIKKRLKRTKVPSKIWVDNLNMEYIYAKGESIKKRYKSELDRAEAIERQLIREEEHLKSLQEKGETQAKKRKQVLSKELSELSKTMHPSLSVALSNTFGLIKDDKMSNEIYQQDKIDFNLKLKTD", "experiment": "HDX-MS; purified assemblies in D2O buffer, quenched at pH ~2.5, pepsin column; exchange patterns compared between assemblies; both purified"}, "[4]": {"molecular_target": "T3, Ctf19 D-RWD domain (K. lactis Ctf19 residues 107-270) (Kluyveromyces lactis) (UniProt Q6CRN7)", "T3 sequence": "T1 sequence 1", "experiment": "crystal structure; Ctf19_107-270-Mcm21_108-293-Okp1_295-360; 35% (v/v) glycerol ethoxylate, 200 mM Li-citrate, 20°C; space group P22(1)2(1); 2.1 Å; both purified"}, "[5]": {"molecular_target": "T1, Ctf19_D-RWD-Mcm21_D-RWD (K. lactis, purified) (Kluyveromyces lactis)", "experiment": "crystal structure; Ctf19_107-270-Mcm21_108-293-Okp1_295-360; 35% (v/v) glycerol ethoxylate, 200 mM Li-citrate, 20°C; space group P22(1)2(1); 2.1 Å; both purified"}, "[6]": {"molecular_target": "T4, Mcm21 D-RWD domain (K. lactis Mcm21 residues 108-293) (Kluyveromyces lactis) (UniProt Q6CVQ9)", "T4 sequence": "T1 sequence 2", "experiment": "crystal structure; Ctf19_107-270-Mcm21_108-293-Okp1_295-360; 35% (v/v) glycerol ethoxylate, 200 mM Li-citrate, 20°C; space group P22(1)2(1); 2.1 Å; both purified"}, "[7]": {"molecular_target": "Okp1_295-360 (K. lactis) (Kluyveromyces lactis) (UniProt Q6CJY0)", "experiment": "crystal structure; Ctf19_107-270-Mcm21_108-293-Okp1_295-360; 35% (v/v) glycerol ethoxylate, 200 mM Li-citrate, 20°C; space group P22(1)2(1); 2.1 Å; both purified"}, "[8]": {"molecular_target": "T5, Ctf19_D-RWD-Mcm21_D-RWD-Okp1_229-336 (K. lactis) (Kluyveromyces lactis) (UniProt Q6CRN7+Q6CVQ9+Q6CJY0)", "T5 sequence 1": "T1 sequence 1", "T5 sequence 2": "T1 sequence 2", "T5 sequence 3": "B1 chain", "experiment": "SEC; analytical SEC of purified K. lactis samples alone and combined, Superdex 200 10/300, 4°C; fractions on SDS-PAGE; both purified"}, "[9]": {"molecular_target": "T6, full-length Ctf19-Mcm21 (K. lactis) (Kluyveromyces lactis) (UniProt Q6CRN7+Q6CVQ9)", "T6 sequence 1": "B5 chain 1", "T6 sequence 2": "B5 chain 2", "experiment": "SEC; analytical SEC of purified K. lactis samples alone and combined, Superdex 200 10/300, 4°C; fractions on SDS-PAGE; both purified"}, "[10]": {"molecular_target": "T6, full-length Ctf19-Mcm21 (K. lactis) (Kluyveromyces lactis)", "experiment": "MST; Ctf19-Mcm21 labelled with NT-647-NHS on lysines, ~27 nM; dilution series of peptide; 22-25°C; ITC/MST buffer; three dilution series; both purified"}, "[11]": {"molecular_target": "T6, full-length Ctf19-Mcm21 (K. lactis) (Kluyveromyces lactis)", "experiment": "AUC; sedimentation equilibrium; COMA at ~3-8 uM (for COMA monomer); monomer to dimer; both purified"}}, "note": "No constants are given. Whether binding was seen depends on the method and setting. Some entries that bind do so weakly or less than the wild type. For some assays here: Where a sequence is shown, tags or fusion partners need not be part of it.", "data": [{"binder": "B1", "values": [{"measurement": "binding", "setting": "[1]", "result": "binds"}, {"measurement": "binding", "setting": "[2]", "result": "binds"}]}, {"binder": "B2", "values": [{"measurement": "binding", "setting": "[3]", "result": "binds"}]}, {"binder": "B3", "values": [{"measurement": "binding", "setting": "[4]", "result": "binds"}, {"measurement": "binding", "setting": "[5]", "result": "binds"}, {"measurement": "binding", "setting": "[6]", "result": "binds"}, {"measurement": "binding", "setting": "[7]", "result": "no binding"}]}, {"binder": "B4", "values": [{"measurement": "binding", "setting": "[8]", "result": "no binding"}, {"measurement": "binding", "setting": "[9]", "result": "no binding"}]}, {"binder": "SNEIYQQDKIDFALPLKTDF (peptide, UniProt Q6CJY0 318-337)", "note": "[Okp1 peptide variant N330A-K332P]", "values": [{"measurement": "binding", "setting": "[10]", "result": "no binding"}]}, {"binder": "B5", "values": [{"measurement": "binding", "setting": "[11]", "result": "no binding"}]}]}
